In the supplement of paper PMC12645437, “Orthogonal IMiD-Degron Pairs Induce Selective Protein Degradation in Cells” (ACS Chemical Biology, 2025):
This is one part of the list.

biological target: no compound (DMSO); assay: log2 fold change of degron read counts, EGFP-low vs EGFP+ sorted cells; higher = lower degron-EGFP level without compound (poor expression or instability); conditions: compound: DMSO control; 18 h
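Note: jurkat cells carrying a lentiviral library of mutant zinc finger degrons fused to EGFP plus mCherry, mCherry+ cells FACS sorted, degron abundance counted by next-generation sequencing.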

Sequence	log2 fold change of degron read counts
FQCSVCGHNFTQKGNLLRHIKL	-1.02
LYCPICGFFCTQKGNLLRHIKL	1.92
LICPICGFPCTQKGNLLRHIKL	1.93
FMCNQCGHKFTQKGNLLRHIKL	-0.241
FGCNQCGHWFTQKGNLLRHIKL	1.91
FICSVCGHSFTQKGNLLRHIKL	-1.15
FECPICGAGFTQKGNLLRHIKL	-0.843
FNCNVCGAQFTQKGNLLRHIKL	-0.791
FKCSVCGHYFTQKGNLLRHIKL	0.274
LLCEICGFDCTQKGNLLRHIKL	-1.06
FSCEICGALFTQKGNLLRHIKL	-1.36
FWCDQCGALFTQKGNLLRHIKL	0.512
FSCPVCGALFTQKGNLLRHIKL	-0.291
FFCNQCGHRFTQKGNLLRHIKL	0.42
FMCPICGRMFTQKGNLLRHIKL	0.582
FVCNICGATFTQKGNLLRHIKL	-0.921
LICEICGFACTQKGNLLRHIKL	-0.382
FSCNQCGHMFTQKGNLLRHIKL	0.0698
FVCPICGHAFTQKGNLLRHIKL	-0.743
FTCPICGRIFTQKGNLLRHIKL	-0.0841
FDCDVCGAVFTQKGNLLRHIKL	-2.2
FDCPICGRMFTQKGNLLRHIKL	0.496
FCCDVCGAMFTQKGNLLRHIKL	-2.13
FECSVCGHIFTQKGNLLRHIKL	-0.947
FGCSVCGHQFTQKGNLLRHIKL	-0.0693

Sequence	log2 fold change of degron read counts
FQCSVCGHRFTQKGNLLRHIKL	-0.238
FCCPICGAMFTQKGNLLRHIKL	0.106
FFCDQCGAFFTQKGNLLRHIKL	-0.285
FQCEICGHMFTQKGNLLRHIKL	-1.06
FFCDVCGAMFTQKGNLLRHIKL	-1.63
FRCEICGHEFTQKGNLLRHIKL	-2.04
FDCNQCGAKFTQKGNLLRHIKL	-1.06
FYCNQCGAEFTQKGNLLRHIKL	-1.31
FYCDQCGARFTQKGNLLRHIKL	-0.932
FFCNICGADFTQKGNLLRHIKL	-1.09
FYCDICGAKFTQKGNLLRHIKL	-0.51
FSCDICGASFTQKGNLLRHIKL	-1.28
FFCNQCGHMFTQKGNLLRHIKL	0.754
FNCPQCGAFFTQKGNLLRHIKL	-0.102
FGCPICGRDFTQKGNLLRHIKL	-0.241
FNCEVCGAAFTQKGNLLRHIKL	-2.3
LGCNQCGFVCTQKGNLLRHIKL	1.05
FCCDQCGAAFTQKGNLLRHIKL	-1.61
FQCEICGAPFTQKGNLLRHIKL	-1.03
FVCDQCGARFTQKGNLLRHIKL	-1.67
FQCNVCGAFFTQKGNLLRHIKL	-0.14
FRCPICGRCFTQKGNLLRHIKL	-0.0314
FECNQCGATFTQKGNLLRHIKL	-2.17
LCCEICGFRCTQKGNLLRHIKL	-0.132
FSCNQCGHLFTQKGNLLRHIKL	0.116
